Results taken from the supplement of paper PMC8728848.
This is one part of the list.

Experiments:
Assay in all cases: glycan array binding signal (z-score within array); higher = stronger binding
Conditions in all cases: glycan notation: IUPAC condensed, linker removed
[1] = target: Neu5Ac(a2-6)Gal(b1-4)GlcNAc(b1-2)Man(a1-3)[GlcNAc(b1-4)][Neu5Ac(a2-6)Gal(b1-4)GlcNAc(b1-2)Man(a1-6)]Man(b1-4)GlcNAc(b1-4)GlcNAc
In short: (§1)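 The binding signal is a Z-score computed within each array and averaged over linkers. Arrays of the same protein sequence at different concentrations or buffers were also averaged together. Data originate from 3228 arrays in the Consortium for Functional Glycomics database, kept only where the protein sequence was available.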

[2] = target: Neu5Ac(a2-6)Gal(b1-4)GlcNAc(b1-2)Man(a1-3)[Man(a1-6)]Man(b1-4)GlcNAc(b1-4)GlcNAc
In short: as §1

[3] = target: Neu5Ac(a2-6)Gal(b1-4)GlcNAc(b1-2)Man(a1-3)[Neu5Ac(a2-3)Gal(b1-4)GlcNAc(b1-2)Man(a1-6)]Man(b1-4)GlcNAc(b1-4)GlcNAc
In short: as §1

[4] = target: Neu5Ac(a2-6)Gal(b1-4)GlcNAc(b1-2)Man(a1-3)[Neu5Ac(a2-6)Gal(b1-4)GlcNAc(b1-2)Man(a1-6)]Man(b1-4)GlcNAc(b1-4)GlcNAc
In short: as §1

[5] = target: Neu5Ac(a2-6)Gal(b1-4)GlcNAc(b1-2)Man(a1-3)[Neu5Ac(a2-6)Gal(b1-4)GlcNAc(b1-2)Man(a1-6)]Man(b1-4)GlcNAc(b1-4)[Fuc(a1-6)]GlcNAc
In short: as §1

[6] = target: Neu5Ac(a2-6)Gal(b1-4)GlcNAc(b1-2)Man(a1-6)Man(b1-4)GlcNAc(b1-4)GlcNAc
In short: as §1

[7] = target: Neu5Ac(a2-6)Gal(b1-4)GlcNAc(b1-2)Man(a1-6)[Gal(b1-4)GlcNAc(b1-2)Man(a1-3)]Man(b1-4)GlcNAc(b1-4)GlcNAc
In short: as §1

[8] = target: Neu5Ac(a2-6)Gal(b1-4)GlcNAc(b1-2)Man(a1-6)[GlcNAc(b1-2)Man(a1-3)]Man(b1-4)GlcNAc(b1-4)GlcNAc
In short: as §1

[9] = target: Neu5Ac(a2-6)Gal(b1-4)GlcNAc(b1-2)Man(a1-6)[Man(a1-3)]Man(b1-4)GlcNAc(b1-4)GlcNAc
In short: as §1

[10] = target: Neu5Ac(a2-6)Gal(b1-4)GlcNAc(b1-2)[Neu5Ac(a2-6)Gal(b1-4)GlcNAc(b1-4)]Man(a1-3)[GlcNAc(b1-4)][Neu5Ac(a2-6)Gal(b1-4)GlcNAc(b1-2)[Neu5Ac(a2-6)Gal(b1-4)GlcNAc(b1-6)]Man(a1-6)]Man(b1-4)GlcNAc(b1-4)GlcNAc
In short: as §1

[11] = target: Neu5Ac(a2-6)Gal(b1-4)GlcNAc(b1-2)[Neu5Ac(a2-6)Gal(b1-4)GlcNAc(b1-4)]Man(a1-3)[GlcNAc(b1-4)][Neu5Ac(a2-6)Gal(b1-4)GlcNAc(b1-4)Man(a1-6)]Man(b1-4)GlcNAc(b1-4)GlcNAc
In short: as §1

[12] = target: Neu5Ac(a2-6)Gal(b1-4)GlcNAc(b1-2)[Neu5Ac(a2-6)Gal(b1-4)GlcNAc(b1-6)]Man(a1-6)[Neu5Ac(a2-6)Gal(b1-4)GlcNAc(b1-2)Man(a1-3)][GlcNAc(b1-4)]Man(b1-4)GlcNAc(b1-4)GlcNAc
In short: as §1

[13] = target: Neu5Ac(a2-6)Gal(b1-4)GlcNAc(b1-3)Gal(b1-3)GlcNAc
In short: as §1

[14] = target: Neu5Ac(a2-6)Gal(b1-4)GlcNAc(b1-3)Gal(b1-4)GlcNAc
In short: as §1

[15] = target: Neu5Ac(a2-6)Gal(b1-4)GlcNAc(b1-3)Gal(b1-4)GlcNAc(b1-2)Man(a1-3)[Neu5Ac(a2-6)Gal(b1-4)GlcNAc(b1-3)Gal(b1-4)GlcNAc(b1-2)Man(a1-6)]GalNAc
In short: as §1

[16] = target: Neu5Ac(a2-6)Gal(b1-4)GlcNAc(b1-3)Gal(b1-4)GlcNAc(b1-3)Gal(b1-4)GlcNAc
In short: as §1

[17] = target: Neu5Ac(a2-6)Gal(b1-4)GlcNAc(b1-3)Gal(b1-4)GlcNAc(b1-3)Gal(b1-4)GlcNAc(b1-2)Man(a1-3)[Neu5Ac(a2-6)Gal(b1-4)GlcNAc(b1-3)Gal(b1-4)GlcNAc(b1-3)Gal(b1-4)GlcNAc(b1-2)Man(a1-6)]GalNAc
In short: as §1

[18] = target: Neu5Ac(a2-6)Gal(b1-4)GlcNAc(b1-3)Gal(b1-4)GlcNAc(b1-3)GalNAc
In short: as §1

[19] = target: Neu5Ac(a2-6)Gal(b1-4)GlcNAc(b1-3)Gal(b1-4)GlcNAc(b1-3)[Neu5Ac(a2-6)Gal(b1-4)GlcNAc(b1-3)Gal(b1-4)GlcNAc(b1-6)]GalNAc
In short: as §1

[20] = target: Neu5Ac(a2-6)Gal(b1-4)GlcNAc(b1-3)Gal(b1-4)GlcNAc(b1-6)[Gal(b1-3)]GalNAc
In short: as §1

[21] = target: Neu5Ac(a2-6)Gal(b1-4)GlcNAc(b1-3)Gal(b1-4)[Fuc(a1-3)]GlcNAc(b1-3)Gal(b1-4)[Fuc(a1-3)]GlcNAc
In short: as §1

[22] = target: Neu5Ac(a2-6)Gal(b1-4)GlcNAc(b1-3)GalNAc
In short: as §1

[23] = target: Neu5Ac(a2-6)Gal(b1-4)GlcNAc(b1-3)[Neu5Ac(a2-6)Gal(b1-4)GlcNAc(b1-6)]GalNAc
In short: as §1

[24] = target: Neu5Ac(a2-6)Gal(b1-4)GlcNAc(b1-6)GalNAc
In short: as §1

[25] = target: Neu5Ac(a2-6)Gal(b1-4)GlcNAc(b1-6)[Gal(b1-3)GlcNAc(b1-3)]Gal(b1-4)Glc
In short: as §1

[26] = target: Neu5Ac(a2-6)Gal(b1-4)GlcNAc(b1-6)[Gal(b1-3)]GalNAc
In short: as §1

[27] = target: Neu5Ac(a2-6)Gal(b1-4)GlcNAc6S
In short: as §1

Neu5Ac(a2-6)GalNAc = target: Neu5Ac(a2-6)GalNAc
In short: as §1

[28] = target: Neu5Ac(a2-6)GalNAc(b1-4)GlcNAc
In short: as §1

[29] = target: Neu5Ac(a2-6)GalNAc(b1-4)GlcNAc6S
In short: as §1

[30] = target: Neu5Ac(a2-6)GlcNAc(b1-4)GlcNAc
In short: as §1

B1: HBHA-Rv (Mycobacterium tuberculosum), P0A5P6 (protein)
chain: MAENSNIDDIKAPLLAALGAADLALATVNELITNLRERAEETRTDTRSRVEESRARLTKLQEDLPEQLTELREKFTAEELRKAAEGYLEAATSRYNELVERGEAALERLRSQQSFEEVSARAEGYVDQAVELTQEALGTVASQTRAVGERAAKLVGIELPKKAAPAKKAAPAKKAAPAKKAAAKKAPAKKAAAKKVTQK
- glycan array binding signal (z-score) [1]: -0.404
- glycan array binding signal (z-score) [2]: -0.404
- glycan array binding signal (z-score) [3]: -0.42
- glycan array binding signal (z-score) [4]: -0.129
- glycan array binding signal (z-score) [5]: -0.469
- glycan array binding signal (z-score) [6]: -0.404
- glycan array binding signal (z-score) [7]: -0.392
- glycan array binding signal (z-score) [8]: -0.465
- glycan array binding signal (z-score) [9]: -0.302
- glycan array binding signal (z-score) [10]: -0.416
- glycan array binding signal (z-score) [11]: -0.077
- glycan array binding signal (z-score) [12]: -0.441
- glycan array binding signal (z-score) [13]: -0.037
- glycan array binding signal (z-score) [14]: -0.321
- glycan array binding signal (z-score) [15]: -0.407
- glycan array binding signal (z-score) [16]: -0.395
- glycan array binding signal (z-score) [17]: -0.089
- glycan array binding signal (z-score) [18]: -0.379
- glycan array binding signal (z-score) [19]: -0.41
- glycan array binding signal (z-score) [20]: -0.403
- glycan array binding signal (z-score) [21]: -0.145
- glycan array binding signal (z-score) [22]: -0.032
- glycan array binding signal (z-score) [23]: -0.388
- glycan array binding signal (z-score) [24]: -0.187
- glycan array binding signal (z-score) [25]: -0.2
- glycan array binding signal (z-score) [26]: -0.461
- glycan array binding signal (z-score) [27]: 0.145
- glycan array binding signal (z-score) (Neu5Ac(a2-6)GalNAc): 0.287
- glycan array binding signal (z-score) [28]: -0.342
- glycan array binding signal (z-score) [29]: 0.057
- glycan array binding signal (z-score) [30]: -0.401
